Among the data in the supplement of paper PMC4604168 (melanoma cell lines) are cell count values, retold here.

Some of the results follow. Single values are uncertain, as repeats are few or missing.
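Note: cells treated in 1,536-well plates, then fixed and DAPI-stained, with nuclei counted from automated high-throughput microscope images.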

This assay relates to COLO829. Briefly: cell count relative to DMSO control; melanoma cells; higher = more viable cells. Particulars: library dose: standard library concentration; 72 h.
For `CS(=O)(=O)c1ccc(C(=O)Nc2ccc(Cl)c(-c3ccccn3)c2)c(Cl)c1` [vismodegib] + CCN(CC)CCCCNc1ncc2cc(-c3cc(OC)cc(OC)c3)c(NC(=O)NC(C)(C)C)nc2n1 [PD173074] (first compound 5 µM, partner dose 0.5 µM), the cell count is 116%.
The result for `C=C(c1ccc(C(=O)O)cc1)c1cc2c(cc1C)C(C)(C)CCC2(C)C` [Bexarotene] + Cn1nnc2c(C(N)=O)ncn2c1=O [temozolomide] (first compound 10 µM, partner dose 10 µM) reads 53.7%; that for `NC1(c2ccc(-c3nc4ccn5c(=O)[nH]nc5c4cc3-c3ccccc3)cc2)CCC1` + CCN(CC)CCCCNc1ncc2cc(-c3cc(OC)cc(OC)c3)c(NC(=O)NC(C)(C)C)nc2n1 [PD173074] (first compound 2 µM, partner dose 0.5 µM), 109%; that for `CN(c1ncccc1CNc1nc(Nc2ccc3c(c2)CC(=O)N3)ncc1C(F)(F)F)S(C)(=O)=O` + O=C(O)C(=O)Nc1sc2c(c1C(=O)O)CCNC2 [TCS401] (first compound 0.4 µM, partner dose 8.33333 µM), 76.6%.
The result for `CN(c1ncccc1CNc1nc(Nc2ccc3c(c2)CC(=O)N3)ncc1C(F)(F)F)S(C)(=O)=O` + COc1ccc(COc2ccc(Cc3cnc(N)nc3N)cc2OC)cc1 [GW2580] (first compound 0.4 µM, partner dose 5 µM) reads 84.4%; that for `CN(c1ncccc1CNc1nc(Nc2ccc3c(c2)CC(=O)N3)ncc1C(F)(F)F)S(C)(=O)=O` + CCN(CC)CCCCNc1ncc2cc(-c3cc(OC)cc(OC)c3)c(NC(=O)NC(C)(C)C)nc2n1 [PD173074] (first compound 0.4 µM, partner dose 0.5 µM), 78.6%; that for `NC1(c2ccc(-c3nc4ccn5c(=O)[nH]nc5c4cc3-c3ccccc3)cc2)CCC1` + c1cc(-c2cnn3cc(-c4ccc(OCCN5CCCCC5)cc4)cnc23)ccn1 [Dorsomorphin] (first compound 2 µM, partner dose 2 µM), 80.1%.
As to `C=C(c1ccc(C(=O)O)cc1)c1cc2c(cc1C)C(C)(C)CCC2(C)C` [Bexarotene] + c1cc(-c2cnn3cc(-c4ccc(OCCN5CCCCC5)cc4)cnc23)ccn1 [Dorsomorphin] (first compound 10 µM, partner dose 2 µM), the cell count is 61.5%.
As for `CS(=O)(=O)c1ccc(C(=O)Nc2ccc(Cl)c(-c3ccccn3)c2)c(Cl)c1` [vismodegib] + O=C(O)C(=O)Nc1sc2c(c1C(=O)O)CCNC2 [TCS401] (first compound 5 µM, partner dose 8.33333 µM), the cell count was determined as 90.3%.
Then `CN(c1ncccc1CNc1nc(Nc2ccc3c(c2)CC(=O)N3)ncc1C(F)(F)F)S(C)(=O)=O` + N#Cc1c(O)c2c(-c3ccc(-c4ccccc4O)cc3)csc2[nH]c1=O [A769662] (first compound 0.4 µM, partner dose 10 µM), with 65.7%.
`CN(c1ncccc1CNc1nc(Nc2ccc3c(c2)CC(=O)N3)ncc1C(F)(F)F)S(C)(=O)=O` + O=S(=O)(c1ccccc1)N(CC(F)(F)F)c1ccc(C(O)(C(F)(F)F)C(F)(F)F)cc1 [T0901317] (first compound 0.4 µM, partner dose 7 µM) returned a cell count of 66.6%.
Then `C=C(c1ccc(C(=O)O)cc1)c1cc2c(cc1C)C(C)(C)CCC2(C)C` [Bexarotene] + COc1ccc(COc2ccc(Cc3cnc(N)nc3N)cc2OC)cc1 [GW2580] (first compound 10 µM, partner dose 5 µM), with 83%; and `NC1(c2ccc(-c3nc4ccn5c(=O)[nH]nc5c4cc3-c3ccccc3)cc2)CCC1` + O=C(O)c1ccc(-c2c[nH]c3ncc(-c4ccccc4)cc23)cc1C1CCCC1 [GSK650394] (first compound 2 µM, partner dose 0.8 µM), with 76.8%; and `CCCS(=O)(=O)Nc1ccc(F)c(C(=O)c2c[nH]c3ncc(Cl)cc23)c1F` + Cc1nc(Nc2ncc(C(=O)Nc3c(C)cccc3Cl)s2)cc(N2CCN(CCO)CC2)n1 [dasatanib] (first compound 0.4 µM, partner dose 0.02 µM), with 64.4%.
